PubChem BioAssay AID2073 (Sanford-Burnham Center for Chemical Genomics, 2009)
Some of the results follow. The main result of the screen is listed elsewhere. These columns were measured beside it and carry no call.

molecular target: Voltage-dependent N-type calcium channel subunit alpha-1B (Homo sapiens) (UniProt Q00975); assay: inhibitors of Mint1-CaV2.2 protein interaction, biochemical, HTRF (AID 2073); conditions: measured here: average of repeat tests, at 20 µM, stronger effect = higher value
Sequence of UniProt Q00975 (Q00975 whole entry, looked up): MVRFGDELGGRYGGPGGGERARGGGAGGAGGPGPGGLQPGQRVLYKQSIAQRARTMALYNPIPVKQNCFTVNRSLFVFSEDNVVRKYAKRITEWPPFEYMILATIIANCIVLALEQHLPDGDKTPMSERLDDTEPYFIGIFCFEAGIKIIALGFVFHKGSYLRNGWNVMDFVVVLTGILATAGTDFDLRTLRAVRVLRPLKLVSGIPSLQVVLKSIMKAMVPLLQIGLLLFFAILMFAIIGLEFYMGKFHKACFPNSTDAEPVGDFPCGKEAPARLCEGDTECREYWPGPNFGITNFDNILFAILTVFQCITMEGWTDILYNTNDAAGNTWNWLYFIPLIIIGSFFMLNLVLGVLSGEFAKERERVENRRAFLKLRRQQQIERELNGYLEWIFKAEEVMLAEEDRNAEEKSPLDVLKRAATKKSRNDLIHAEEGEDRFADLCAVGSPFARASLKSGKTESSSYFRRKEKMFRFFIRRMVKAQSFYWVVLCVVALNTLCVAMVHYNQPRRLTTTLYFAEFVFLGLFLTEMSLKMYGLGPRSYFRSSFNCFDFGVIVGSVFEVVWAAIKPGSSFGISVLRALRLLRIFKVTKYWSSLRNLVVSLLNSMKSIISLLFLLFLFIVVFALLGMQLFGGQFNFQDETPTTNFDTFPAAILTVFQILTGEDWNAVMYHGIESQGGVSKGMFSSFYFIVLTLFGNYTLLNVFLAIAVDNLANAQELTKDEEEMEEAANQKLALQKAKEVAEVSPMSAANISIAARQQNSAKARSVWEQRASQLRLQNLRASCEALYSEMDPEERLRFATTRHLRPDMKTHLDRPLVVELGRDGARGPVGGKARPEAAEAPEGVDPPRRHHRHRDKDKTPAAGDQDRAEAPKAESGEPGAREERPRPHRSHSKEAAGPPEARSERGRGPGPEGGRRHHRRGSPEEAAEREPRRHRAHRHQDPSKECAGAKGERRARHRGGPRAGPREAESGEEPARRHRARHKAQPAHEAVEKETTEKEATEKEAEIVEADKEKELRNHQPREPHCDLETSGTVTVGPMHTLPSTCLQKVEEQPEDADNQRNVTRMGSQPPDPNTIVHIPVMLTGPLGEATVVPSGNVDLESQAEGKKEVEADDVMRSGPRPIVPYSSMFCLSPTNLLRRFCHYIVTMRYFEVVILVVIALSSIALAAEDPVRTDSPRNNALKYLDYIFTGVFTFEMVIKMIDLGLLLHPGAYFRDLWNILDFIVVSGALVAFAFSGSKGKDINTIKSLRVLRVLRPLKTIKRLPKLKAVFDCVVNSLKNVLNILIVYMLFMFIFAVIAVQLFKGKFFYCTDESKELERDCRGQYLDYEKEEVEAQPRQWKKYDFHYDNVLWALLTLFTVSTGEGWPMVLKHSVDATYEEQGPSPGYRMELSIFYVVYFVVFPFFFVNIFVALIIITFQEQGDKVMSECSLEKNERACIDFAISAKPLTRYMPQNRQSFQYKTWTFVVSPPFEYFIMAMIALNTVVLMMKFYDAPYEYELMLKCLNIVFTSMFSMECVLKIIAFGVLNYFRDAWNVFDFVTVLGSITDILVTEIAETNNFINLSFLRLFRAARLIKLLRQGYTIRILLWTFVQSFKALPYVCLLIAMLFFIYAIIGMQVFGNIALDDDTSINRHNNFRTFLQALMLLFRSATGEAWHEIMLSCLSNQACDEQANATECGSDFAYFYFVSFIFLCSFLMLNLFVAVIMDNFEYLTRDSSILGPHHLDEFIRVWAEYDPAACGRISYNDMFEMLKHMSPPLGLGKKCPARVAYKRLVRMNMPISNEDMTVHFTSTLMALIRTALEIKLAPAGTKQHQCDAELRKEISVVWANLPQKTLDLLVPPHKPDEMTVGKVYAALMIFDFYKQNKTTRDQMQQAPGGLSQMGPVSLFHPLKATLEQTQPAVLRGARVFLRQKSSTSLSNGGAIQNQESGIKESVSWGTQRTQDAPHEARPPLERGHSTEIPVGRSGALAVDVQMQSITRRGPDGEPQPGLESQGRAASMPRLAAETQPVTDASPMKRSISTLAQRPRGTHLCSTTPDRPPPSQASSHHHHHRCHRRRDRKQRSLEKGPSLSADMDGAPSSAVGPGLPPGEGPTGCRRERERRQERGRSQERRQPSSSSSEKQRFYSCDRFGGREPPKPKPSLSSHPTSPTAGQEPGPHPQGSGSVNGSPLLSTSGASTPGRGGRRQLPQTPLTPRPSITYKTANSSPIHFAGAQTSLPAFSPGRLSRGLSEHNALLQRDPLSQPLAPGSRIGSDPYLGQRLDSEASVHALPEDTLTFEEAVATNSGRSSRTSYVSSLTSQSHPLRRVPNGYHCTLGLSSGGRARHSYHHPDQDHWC

Q: How did the inhibition turn out when `CN(CCOC(=O)/C=C/c1ccco1)Cc1ccccc1` was run?
A: The inhibition was 62%.

Q: Which inhibition does the source give for `O=C(Nc1ccncc1NC(=O)c1cccc([N+](=O)[O-])c1)c1cccc([N+](=O)[O-])c1` here?
A: Its inhibition is 50.4%.

Q: For `Cc1cc(C)n(Cc2ccc(C(=O)N/N=C/c3ccc(-c4ccc([N+](=O)[O-])cc4)o3)o2)n1`, which inhibition is on record?
A: Its inhibition is 55%.

Q: `C/C=C\C=C/C(=O)Nc1cccc(C2=NOC3(C2)C[C@@H](C(N)=O)N(C(=O)/C=C/C=C\C)C3)c1` (some centres undefined) was tested. Which inhibition did it give?
A: Its inhibition is 76.9%.

Q: How did the inhibition turn out when `O=[N+]([O-])c1ccc(-c2c[nH]c(=S)[nH]2)cc1` was run?
A: Its inhibition is 54.4%.

Q: `Cc1c(O)cc2c(c1O)C(=O)CC(c1ccc(O)cc1)O2` (centres undefined) was tested. Which inhibition did it give?
A: The inhibition was 55.3%.

Q: How did the inhibition turn out when `Cc1ccccc1-c1cc(C(=O)Nc2sc(C(=O)OC(C)C)c(C)c2C#N)c2ccccc2n1` was run?
A: Its inhibition is 47.8%.

Q: `O=C(CCS(=O)(=O)c1ccccc1)Nc1ccc(-c2nc3ccccc3s2)cc1` was tested. Which inhibition did it give?
A: Its inhibition is 47.2%.

Q: Which inhibition does the source give for `c1coc(-c2nnc(-c3ccco3)nn2)c1` here?
A: The inhibition was 63.9%.

Q: Which inhibition does the source give for `CC(=O)Nc1ccc(NC(=O)c2ccc(NC(=O)c3ccccc3)cc2)cc1` here?
A: Its inhibition is 48.3%.

Q: Which inhibition does the source give for `CCOc1ccc(NC(=O)Cn2cncc2-c2ccc([N+](=O)[O-])cc2)cc1` here?
A: The inhibition was 31.3%.

Q: With `Cc1ccc(/C=C2\SC(=S)N(CCC(=O)NNC(=O)c3cccc(O)c3)C2=O)cc1` as the compound, how does the inhibition read?
A: Its inhibition is 43.8%.

Q: Which inhibition does the source give for `Cc1ccccc1N1C(=O)CC(Sc2nnc(-c3ccccc3)o2)C1=O` (centres undefined) here?
A: Its inhibition is 67.7%.

Q: Which inhibition does the source give for `COc1ccc(/C=C2\SC(=S)N(CC(=O)NNC(=O)c3ccncc3)C2=O)cc1` here?
A: Its inhibition is 43.4%.

Q: How did the inhibition turn out when `COC/C=C/C1=CC2=CC(=O)C(C)(OC(=O)c3cnc4ccccc4n3)C(=O)C2=CN1c1ccc(CO)cc1` (centres undefined) was run?
A: Its inhibition is 78.2%.

Q: With `Cc1cccc(NC(=S)NCc2ccco2)n1` as the compound, how does the inhibition read?
A: Its inhibition is 64.1%.

Q: Which inhibition does the source give for `Clc1nssc1=Nc1ccccc1` here?
A: The inhibition was 74.4%.

Q: `N#CCC(=O)N/N=C/c1cn(Cc2ccc(Cl)c(Cl)c2)c2ccccc12` was tested. Which inhibition did it give?
A: Its inhibition is 61.2%.

Q: For `O=C(O)c1ccc(NS(=O)(=O)c2ccc3c(c2)C2C=CCC2C(c2ccccc2F)N3)cc1` (centres undefined), which inhibition is on record?
A: The inhibition was 40.4%.

Q: Which inhibition does the source give for `Cc1cc(C)c2c(=O)n(CC(=O)N3CCC(Cc4ccccc4)CC3)sc2n1` here?
A: The inhibition was 78.4%.

Q: How did the inhibition turn out when `COc1ccc(OC)c(CCNC(=O)Cn2sc3nc(C)cc(C)c3c2=O)c1` was run?
A: Its inhibition is 87.3%.

Q: `COc1cccc2c1NC(C(=O)O)C1CC=CC21` (centres undefined) was tested. Which inhibition did it give?
A: Its inhibition is 55%.

Q: Which inhibition does the source give for `O=C(Nc1ccc(S(=O)(=O)N2CCOCC2)cc1)c1ccc(=O)[nH]c1` here?
A: Its inhibition is 54.9%.

Q: Which inhibition does the source give for `N#Cc1c(C#N)c(O)c2ccccc2c1O` here?
A: Its inhibition is 63%.

Q: Which inhibition does the source give for `CCNC(=S)NC(=NCc1cccnc1)Nc1nc(C)cc(C)n1` here?
A: The inhibition was 79.8%.

Q: For `Cc1cc(C)c2c(=O)n(CC(=O)Nc3cccc(F)c3)sc2n1`, which inhibition is on record?
A: The inhibition was 86.9%.

Q: How did the inhibition turn out when `COc1cc(/C=C2\SC(=O)N(c3cccc(Cl)c3)C2=O)cc([N+](=O)[O-])c1O` was run?
A: The inhibition was 88.2%.

Q: How did the inhibition turn out when `COc1cccc(N=c2oc3ccc(OC)cc3cc2-c2nc3ccccc3[nH]2)c1` was run?
A: The inhibition was 50.4%.

Q: `O=c1[nH]c(-c2ccc3c(c2)OCO3)nc2c1sc(=S)n2-c1ccccc1` was tested. Which inhibition did it give?
A: The inhibition was 66.6%.

Q: `CCOc1ccc(N2C(=O)CC(Sc3nnnn3-c3ccccc3)C2=O)cc1` (centres undefined) was tested. Which inhibition did it give?
A: The inhibition was 71.6%.

Q: `O=C(CCN1C(=O)/C(=C/c2ccccc2Cl)SC1=S)NC1CCS(=O)(=O)C1` (centres undefined) was tested. Which inhibition did it give?
A: Its inhibition is 83.7%.

Q: Which inhibition does the source give for `O=C1C([N+](=O)[O-])=C(O)c2cccc3cccc1c23` here?
A: Its inhibition is 73.1%.

Q: `Cc1c(Cc2ccccc2)sc(NC(=O)c2ccco2)c1C(N)=O` was tested. Which inhibition did it give?
A: Its inhibition is 56.1%.

Q: How did the inhibition turn out when `COCCn1c(=NC(=O)/C=C/c2cccs2)sc2cc(NC(C)=O)ccc21` was run?
A: Its inhibition is 51.4%.

Q: With `NNc1cc([N+](=O)[O-])cc2c1C(=O)N(Cc1ccccc1)S2=O` (centres undefined) as the compound, how does the inhibition read?
A: The inhibition was 80.6%.

Q: Which inhibition does the source give for `CN(C(=O)COC(=O)c1cc(-c2ccco2)nc2ccccc12)C1CCS(=O)(=O)C1` (centres undefined) here?
A: Its inhibition is 76.4%.

Q: For `N#C/C(=C/c1ccc(OCc2ccc(C(=O)O)cc2)c(Br)c1)c1cccc(F)c1`, which inhibition is on record?
A: The inhibition was 67.9%.

Q: With `COc1ccc(NS(=O)(=O)c2cccc(C(=O)NNC(=O)c3cccn3C)c2)cc1` as the compound, how does the inhibition read?
A: The inhibition was 68.5%.

Q: How did the inhibition turn out when `NS(=O)(=O)c1ccc(NS(=O)(=O)c2ccc(NC(=O)c3ccc(-c4ccccc4)cc3)cc2)cc1` was run?
A: The inhibition was 48.5%.

Q: How did the inhibition turn out when `CC(OC(=O)c1ccc(NC(=O)CC#N)cc1)C(=O)Nc1ccc(Oc2ccccc2)cc1` (centres undefined) was run?
A: The inhibition was 63.1%.

Q: For `COC(=O)c1ccccc1NC(=O)c1cc(-c2ccco2)on1`, which inhibition is on record?
A: Its inhibition is 42%.

Q: How did the inhibition turn out when `Nc1ccc2nc(-c3ccc(-c4nc5ccc(N)cc5[nH]4)cc3)[nH]c2c1` was run?
A: The inhibition was 51.7%.

Q: `CC1=C(C(=O)O)N2C(=O)C(NC(=O)c3ccccc3Cl)C2SC1` (centres undefined) was tested. Which inhibition did it give?
A: The inhibition was 84.2%.

Q: For `COc1cccc2cc(C(=O)Nc3ccc(S(=O)(=O)NCC4CCCO4)cc3)c(=O)oc12` (centres undefined), which inhibition is on record?
A: The inhibition was 53.1%.

Q: Which inhibition does the source give for `O=C(O)CCCNC(=O)/C=C/c1ccco1` here?
A: Its inhibition is 77.2%.

Q: `CCCc1cc(=O)oc2cc(OCC(=O)Nc3ccc(S(N)(=O)=O)cc3)ccc12` was tested. Which inhibition did it give?
A: The inhibition was 76%.

Q: Which inhibition does the source give for `N#CC1=C(N)NC(=S)C(C(N)=O)C1c1ccc(Cl)cc1Cl` (centres undefined) here?
A: The inhibition was 79%.

Q: Which inhibition does the source give for `O=C(O)c1ccc(Nc2nc(-c3cc4ccccc4oc3=O)cs2)cc1O` here?
A: The inhibition was 79.3%.

Q: Which inhibition does the source give for `COc1ccc(-c2cc3c(=O)n(CC(=O)Nc4ccc(C(C)=O)cc4)ncn3n2)cc1` here?
A: Its inhibition is 61.3%.

Q: Which inhibition does the source give for `Cc1cc2oc(C(=O)Nc3ccc(S(N)(=O)=O)cc3)c(C)c2cc1Cl` here?
A: The inhibition was 38.2%.

Q: With `Cc1cc(C)c2c(=O)n(CC(=O)Nc3cccc(Cl)c3C)sc2n1` as the compound, how does the inhibition read?
A: The inhibition was 81.4%.

Q: `N#Cc1c(Nc2ccccc2C(F)(F)F)s[nH]c1=O` was tested. Which inhibition did it give?
A: Its inhibition is 68%.

Q: With `CCOC(=O)c1sc2nc(-c3ccco3)c3c(c2c1N)CC(C)(C)OC3` as the compound, how does the inhibition read?
A: The inhibition was 53.3%.

Q: Which inhibition does the source give for `COc1ccc2cc3c(N)nn(C(=O)c4cccc([N+](=O)[O-])c4)c3nc2c1` here?
A: The inhibition was 47.8%.

Q: For `CCc1ccc2nc(NC(=O)c3ccc4c(=O)[nH]c(CN5CCOCC5)nc4c3)sc2c1`, which inhibition is on record?
A: The inhibition was 54.1%.

Q: How did the inhibition turn out when `Nc1ccc2nc(-c3ccc(N)c(Cl)c3)[nH]c2c1` was run?
A: Its inhibition is 66.1%.

Q: With `Cc1cccc(NC(=S)NC2CCCC2)n1` as the compound, how does the inhibition read?
A: The inhibition was 72.4%.

Q: `O=C(O)c1ccc(N2C(=O)/C(=C/c3ccc(-c4ccc([N+](=O)[O-])cc4)o3)C=C2c2ccccc2)cc1` was tested. Which inhibition did it give?
A: The inhibition was 90.8%.

Q: `C=C(C)C(=O)Nc1cccc(C2=NOC3(C2)C[C@@H](C(N)=O)N(C(=O)/C(C)=C/C)C3)c1` (some centres undefined) was tested. Which inhibition did it give?
A: The inhibition was 73.9%.

Q: For `CC(C)n1cc(/C=N/Nc2ccc(Cl)c(C(=O)O)c2)c2ccccc21`, which inhibition is on record?
A: The inhibition was 82.9%.

Q: Which inhibition does the source give for `CC(=O)c1cccc(NC(=O)c2cc(-c3ccc(C)cc3)on2)c1` here?
A: The inhibition was 51.7%.

Q: Which inhibition does the source give for `COc1ccc(N2CSC3=C(C#N)C(c4cccs4)CC(=O)N3C2)cc1` (centres undefined) here?
A: Its inhibition is 60.8%.

Q: With `O=C(Nc1ccc(F)cc1)C1=CC(=O)N2CCN=C2S1` as the compound, how does the inhibition read?
A: The inhibition was 66.8%.

Q: `COc1ccc2ccccc2c1C1CC(=O)N2CN(C3CCCCC3)CSC2=C1C#N` (centres undefined) was tested. Which inhibition did it give?
A: The inhibition was 47.6%.
